PubChem BioAssay AID1745853 (National Center for Advancing Translational Sciences (NCATS), 2022)
This is one part of the list. Further columns of the screen follow, without active or inactive calls.

Assays:
Experiment in all cases: Primary Screen for Target Class Profiling of Small Molecule Inhibitors of Methyltransferases
[1] = target: Glycine N-methyltransferase (Homo sapiens) (UniProt Q14749); settings: purified enzyme, MTase-Glo SAH luminescence; measured here: GNMT inhibition; at 40 µM; stronger effect = lower value
How it was run: (§1)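 Each enzyme was assayed with SAM and its substrate. SAH formation detected by MTase-Glo luminescence; single-point 40 uM screen[…].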

[2] = target: Guanidinoacetate N-methyltransferase (Homo sapiens) (UniProt Q14353); settings: purified enzyme, MTase-Glo SAH luminescence; measured here: GAMT inhibition; at 40 µM; stronger effect = lower value
How it was run: as §1

[3] = target: Histamine N-methyltransferase (Homo sapiens) (UniProt P50135); settings: purified enzyme, MTase-Glo SAH luminescence; measured here: HNMT inhibition; at 40 µM; stronger effect = lower value
How it was run: as §1

[4] = target: Nicotinamide N-methyltransferase (Homo sapiens) (UniProt P40261); settings: purified enzyme, MTase-Glo SAH luminescence; measured here: NNMT inhibition; at 40 µM; stronger effect = lower value
How it was run: as §1

[5] = target: Phenylethanolamine N-methyltransferase (Homo sapiens) (UniProt P11086); settings: purified enzyme, MTase-Glo SAH luminescence; measured here: PNMT inhibition; at 40 µM; stronger effect = lower value
How it was run: as §1
% is set by controls: 0 for no effect and ±100 for the full control effect.

Row | Structure (SMILES) | activity change, negative = inhibition [1] [%] | activity change, negative = inhibition [2] [%] | activity change, negative = inhibition [3] [%] | activity change, negative = inhibition [4] [%] | activity change, negative = inhibition [5] [%]
1 | COc1cc(N2CCC(O)CC2)ccc1Nc1nc(Nc2ccccc2S(=O)(=O)C(C)C)c2[nH]cnc2n1 | -22.3 | 4.97 | -44.9 | -15.6 | -1.6
2 | Cc1ccc2c(c1)c(-n1cccc1)c1n2CC(C)(C(=O)NC2CCCC2)N(Cc2ccccn2)C1=O (stereo not given) | -7.29 | -0.866 | -4.63 | -20.5 | -4.35
3 | CCCOc1ccc(S(=O)(=O)N2CCN(CCO)CC2)cc1-c1nc2c(CCC)cn(CC)c2c(=O)[nH]1 | -6.88 | 12.6 | 6.03 | -20.9 | 6.21
4 | O=C(CC1CCN(C(=O)Cc2ccccc2F)C1)NC1CC1 (stereo not given) | -0.079 | 2.2 | 1.19 | -2.6 | -3.23
5 | COc1ccc(C(=O)N(Cc2ccccc2)S(=O)(=O)c2ccc3c(c2)n(C)c(=O)n3C)cc1 | 0.162 | 3.44 | 5.87 | -11 | -0.207
6 | Cc1ccc(NC(=O)Cn2nc3n(Cc4ccc(F)cc4)c(=O)c4ccccc4n3c2=O)cc1C | -2.72 | 1.67 | -1 | -1.31 | -3.65
7 | COc1cccc(CN2C(=O)c3nc4ccccc4n3CC2(C)C(=O)NC2CCC(C)CC2)c1OC (stereo not given) | 3.09 | 0.049 | 6.34 | 2.08 | 1.77
8 | C=CC(=O)Nc1cccc(Nc2nc(Nc3ccc(OCCOC)cc3)ncc2F)c1 | -55.8 | -24 | -50 | -64.9 | -31.1
9 | COc1ccc(S(=O)(=O)N2C[C@@H]3C[C@H](C2)c2ccc(NC(=O)c4ccc(C#N)cc4)c(=O)n2C3)cc1 | 0.061 | 0.029 | 1.28 | -4.17 | 7.16
10 | CCOc1ccccc1CN1C(=O)c2ccc(-c3ccco3)n2CC1(C)C(=O)NC1CCCCC1C (stereo not given) | -9.04 | 6.28 | -6.54 | -10.9 | -2.8
11 | CC(C)CNC(=O)c1ccc2c(=O)n(CC(C)C)c3nn(CC(=O)Nc4ccc(F)cc4)c(=O)n3c2c1 | 8.76 | 0 | 13.1 | 8.81 | 9.06
12 | COc1ccc(N2C(=O)c3cc(C(C)C)nn3CC2(C)C(=O)NC2CCCCCC2)cc1 (stereo not given) | 3.99 | 0.684 | 7 | 10.8 | 3.34
13 | CCOC(=O)c1cc2n(n1)CC(C)(C(=O)NC1CCCCC1)N(Cc1ccccc1Cl)C2=O (stereo not given) | 0.612 | 0 | -0.962 | -2.78 | -0.768
14 | CC1(C(=O)NC2CCCC2)Cn2c(ccc2-c2ccco2)C(=O)N1Cc1cccs1 (stereo not given) | -13.4 | 2.04 | -5.12 | -4.51 | -5.42
15 | CCC(=O)Nc1cccc(Oc2nc(Nc3ccc(N4CCN(C)CC4)cc3OC)ncc2Cl)c1 | -5.05 | 9.4 | -8.51 | -6.72 | -2.31
16 | CCCCc1ccc(NS(=O)(=O)c2ccc(F)cc2)cc1 | 1.97 | 2.73 | 4.83 | -20.5 | -8.6
17 | COc1ccccc1CNC(=O)C1(C)Cn2nc(-c3ccccc3)cc2C(=O)N1c1ccc(C)cc1 (stereo not given) | -2.38 | 4.43 | 1.67 | -3.24 | -1.22
18 | COc1ccc(C(=O)N(CCC(C)C)Cc2nc(C)c(C)n2Cc2ccccc2C)c(OC)c1 | -2.23 | -2.46 | -0.795 | -81.3 | -11.1

Row | Structure (SMILES) | activity change, negative = inhibition [1] [%] | activity change, negative = inhibition [2] [%] | activity change, negative = inhibition [3] [%] | activity change, negative = inhibition [4] [%] | activity change, negative = inhibition [5] [%]
19 | CC(=O)N1CCN([C@H]2CCN(C(=O)N(C)[C@H](C)c3cc(C(F)(F)F)cc(C(F)(F)F)c3)[C@@H](c3ccc(F)cc3C)C2)CC1 | -1.22 | 16.5 | 12.8 | -7.84 | 8.3
20 | CC1(C(=O)NC2CCCCCC2)Cc2ccccc2C(=O)N1C1CCCC1 (stereo not given) | -6.11 | 3.69 | 3.02 | 3.56 | -3.74
21 | CC(=O)OCC1OC(O[C@H]2CC[C@]34C[C@]35CC(O)[C@]3(C)[C@@H]([C@H](C)CC/C=C(\C)C(=O)O)C(O)C[C@@]3(C)C5CC[C@H]4C2(C)C)C(O)C(O)C1OC1OCC(O)C(O)C1O (stereo not given in full) | 0.603 | -8.23 | 3.33 | -17.5 | 0.564
22 | COc1ccc(-c2cnc3ccc(NCc4ccc(S(N)(=O)=O)cc4)nn23)cc1OC | -50.6 | -20.9 | -54.4 | -32.8 | -30.3
23 | COc1ccc(CCNc2ncnc3c2CN(C2CCC2)C(=O)N(C)C3)cc1 | -4.31 | -1.35 | -1.36 | -13.6 | -0.156
24 | COc1ccc(CNC(=O)C2(C)Cn3cnc(C(=O)NCCc4ccco4)c3C(=O)N2C2CC2)cc1 (stereo not given) | -3.01 | 0 | 4.01 | -1.41 | 0.326
25 | CCN1CCN(C(=O)c2cc3n(n2)CC(C)(C(=O)NC2CCCCC2)N(C)C3=O)CC1 (stereo not given) | 2.32 | 1.12 | 8.32 | 3.4 | 2.64
26 | Cc1cc(F)ccc1NS(=O)(=O)c1ccc2c(c1)n(C)c(=O)n2C | 12.1 | 0 | 10.2 | -0.617 | 2.49
27 | COc1ccc(CC(=O)N2CCc3nc(-c4cccnc4)[nH]c3C2)cc1 | -7.91 | -5.47 | -11.3 | -12.9 | -11.2
28 | CCOc1ccc(CCN2C(=O)c3cc4ccccc4n3CC2(C)C(=O)NCc2ccccc2)cc1 (stereo not given) | 5.01 | 0 | 7.94 | 11.9 | 2.18
29 | Cc1ccc(NS(=O)(=O)c2ccc3[nH]c(=O)[nH]c3c2)cc1Cl | 9.03 | 1.25 | 9.08 | -3.62 | -22.3
30 | C[C@@H]1CC[C@]2(C(=O)O[C@@H]3O[C@H](CO)[C@@H](O)[C@H](O)[C@H]3O)CC[C@]3(C)C(=CCC4[C@@]5(C)C[C@@H](O)[C@H](O)C(C)(C)C5CC[C@]43C)C2[C@]1(C)O (stereo not given in full) | 0.222 | 7.42 | 12.8 | -4 | 8.24
31 | C[C@@]12CO[C@@H](CNS(C)(=O)=O)O[C@@H]1CC[C@]1(C)[C@@H]2CC[C@@H](O)[C@H]1CC(=O)NCc1ccco1 | -4.91 | -0.605 | 1.42 | -6.57 | 0.974
32 | CN1C(=O)c2cc(C(=O)N3CCN(c4ccccc4F)CC3)nn2CC1(C)C(=O)NC1CCCCC1 (stereo not given) | 4.43 | 3.39 | 9.69 | 6.46 | 1.76
33 | O=c1c2ccccc2n2c(-c3ccc(Cl)cc3)nnc2n1CCc1ccccc1 | -8.76 | 2.43 | -5.02 | -4.82 | -8.74
34 | Cc1ccccc1N(C)C1CN(Cc2ccc(C#N)cc2)C1 | -6.28 | -0.02 | -13.6 | -18.1 | -10.7
35 | O=C(N[C@H](c1ccccn1)C1CC(O)C1)c1ccc2c(c1)ncn2CCO (stereo not given in full) | -1.74 | -7.25 | -4.67 | -3.53 | 304
